In PubChem BioAssay AID336 (DTP/NCI, 2004):
Inconclusive results and toxic doses are left out. Not every entry of the source has a single result; some have several. This is not the full list of results. There may be further records. The records of an entry are repeated measurements in other runs, samples, wells, individuals or studies.

Tested on: BDF1 mice, P388/VCR leukemia ip, median survival T/C
Test: NCI In Vivo Anticancer Drug Screen. Data for tumor model P388 Leukemia resistant to Vincristine; NSC 67574 (intraperitoneal) in B6D2F1 (BDF1) mice
Conditions: endpoint: median survival time, schedule: Q01DX010 (ip), higher = longer survival
Experimental: The antitumor activity of compounds was measured in mice bearing transplantable tumors. Survival or tumor size were measured and the results are expressed as the measurement made in the treated group (T) divided by the measurement made in the vehicle treated control group (C). The tumor model used in this assay is P388 Leukemia resistant to Vincristine; NSC 67574 (intraperitoneal) in B6D2F1 (BDF1) mice

[1] = dose: 20.0 mg/kg/injection, vehicle: saline
[2] = dose: 10.0 mg/kg/injection, vehicle: saline

SMILES: C[n+]1ccc(NC(=O)c2ccc(NC(=O)c3cccc(C(=O)Nc4ccc(C(=O)Nc5cc[n+](C)cc5)cc4)c3)cc2)cc1
- T/C [1]: 123 % of control and 150 % of control

SMILES: Nc1nc(=S)c2[nH]cnc2[nH]1
- T/C (dose: 2.5 mg/kg/injection, vehicle: other): 107 % of control and 153 % of control

SMILES: Cc1cc(N(CCCl)CCCl)ccc1N=Nc1ccccc1C(=O)O
- T/C [2]: 117 % of control and 150 % of control
- T/C [1]: 117 % of control and 162 % of control

SMILES: N#[N+]c1cnc([O-])[nH]c1=O
- T/C [2]: 95 % of control and 168 % of control

SMILES: N=[N+]=CC(=O)OCC(N)C(=O)O (centres undefined)
- T/C (dose: 12.5 mg/kg/injection, vehicle: saline): 113 % of control and 150 % of control

SMILES: O=C(Nc1ccc(NC2=NCCN2)cc1)c1ccc(C(=O)Nc2ccc(NC3=NCCN3)cc2)cc1
- T/C (dose: 16.0 mg/kg/injection, vehicle: saline): 111 % of control and 189 % of control

SMILES: C1CN1c1nc(N2CC2)nc(N2CC2)n1
- T/C (dose: 0.25 mg/kg/injection, vehicle: saline): 120 % of control and 152 % of control

SMILES: O=C(Nc1ccc(C(=O)Nc2ccc(C3=NCCCN3)cc2)cc1)Nc1ccc(C2=NCCCN2)cc1
- T/C (dose: 7.5 mg/kg/injection, vehicle: saline): 116 % of control and 161 % of control
